In PubChem BioAssay AID1508624 (National Center for Advancing Translational Sciences (NCATS), 2021):
About 120 (0.25%) of roughly 48,000 compounds were called active. Another 4% or so got no clear call; they are omitted. The call rests on the fitted dose curve; in most records, active means well fitted activation curve with a large enough effect; inconclusive means small, poorly fitted or top-dose-only effect, or another doubt; inactive means no such curve, though single readings can be large or run the other way. The list shows a part of the results.

test: Primary qHTS for Identification of Small Molecule Activators of Huntingtin-Antisense Promoter Activity; details: HEK293 HTT-AS promoter firefly luciferase reporter, 24 h; series mostly up to 57.5 µM; activity change, positive = activation: at the top concentration; further: nearly all actives have a fitted effect of over 55% in size
Method in brief: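 Firefly luciferase readout (Dual-Glo, 10 min RT) after 24 h, 37 °C compound exposure (final up to 57.5 uM) of HEK293 reporter cells cultured 24 h beforehand; PTC124 at 50 uM final as control inhibitor; activity scaled vehicle 0%, zero RLU -100%.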

Activity change, positive = activation, inactive:
COC(=O)c1cc2occc2n1Cc1nc(-c2ccccc2)oc1C -5.58%
N#Cc1ccc(-c2cccs2)nc1SCC(=O)Nc1cccc(C(F)(F)F)c1 3.24%
CCCCCn1c(=O)[nH]c2cc(C(=O)Nc3ccc(F)c(F)c3)ccc2c1=O -4.46%
Cc1cc(SCC(=O)NCc2ccc(Cl)cc2)nc(=O)[nH]1 -16.4%
CCN(CC)CCOC(=O)c1ccc(NC(=O)c2cc3c(=O)n(CC)c4ccccc4c3s2)cc1 -10.7%
Cc1ccc(S(=O)(=O)N2CCC(C(=O)NCc3ccccc3Cl)CC2)cc1 -18.1%
Cc1ccccc1C(=O)Nc1cccc(OCc2cc(=O)n3c(C)csc3n2)c1 7.89%
CCN1CCN(Cc2c(O)ccc3c(C)c(-c4ccc(OC)cc4)c(=O)oc23)CC1 -22.7%
COc1ccccc1C1c2c(-c3ccc(Cl)cc3)n[nH]c2C(=O)N1c1ccc(C)cc1 (configuration not stated) -34.8%
Cc1cccc(NC(=O)c2cc(S(=O)(=O)NCCc3ccccc3)ccc2F)c1C -22.2%
COc1ccc(NC(=O)C2=CC(c3ccco3)=NS(=O)(=O)N2C)cc1 -6.75%
Cc1ccccc1S(=O)(=O)Cc1ccc(C(=O)N2CCN(c3cccc(Cl)c3)CC2)o1 -53.8%
Oc1cc(O)cc(C=Cc2ccc(O)c(O)c2)c1 9.07%
Cc1ccc(C)c(NC(=O)CN2CCSc3ccc(S(=O)(=O)N4CCCC4)cc32)c1 -26.9%
COc1ccccc1N1CCN(c2ncnc3c2nnn3C)CC1 -1.92%
COc1ccc(-c2c(C#N)c(SCC(=O)Nc3ccccc3C)nc(C)c2C(=O)Nc2ccc(Cl)cc2)cc1 -16.9%
CN(c1ccccc1)S(=O)(=O)c1ccc(NC(=O)c2nc(S(C)(=O)=O)ncc2Cl)cc1 -94.6%
Cc1cc(O)c(C(c2cccc(F)c2)N2CCN(c3ccccc3)CC2)c(=O)n1Cc1ccco1 (configuration not stated) 4.44%
COC(=O)c1c(NC(=O)CCCOc2cccc(C)c2)sc2c1CCC2 1.92%
Cc1cc2c(cc1S(N)(=O)=O)S(=O)(=O)CCC2 -3.13%
C[C@H]1O[C@H](O[C@H]2[C@H](O)[C@@H](O)[C@@H](O[C@H]3[C@H](O)[C@@H](O)[C@H](O)O[C@@H]3CO)O[C@@H]2CO)[C@H](O)[C@@H](O)[C@@H]1N[C@H]1C=C(CO)[C@@H](O)[C@H](O)[C@H]1O -2.73%
Cc1cc(C)n(-c2nnc(Nc3ccc(C)c(C)c3)c3ccccc23)n1 -22.3%
COc1ccc(NC(=O)c2sc3nc4c(cc3c2N)CN(Cc2ccccc2)CC4)c(OC)c1 -21.5%
Cc1ccc(C)c(CN2C(=O)c3ccccc3S(=O)(=O)c3ccc(C(=O)OCC4CCCO4)cc32)c1 (configuration not stated) -22.8%
COc1ccc(NC(=O)Cn2c(SCc3ccc(C)cc3)nc3cccnc32)cc1OC -3.21%
COC(=O)c1cc(Cl)ccc1OC -3.7%
Cc1cccc(NC(=O)Cn2cc(C(=O)C3CCCCC3)c3ccccc32)c1 -25.8%
COc1ccc(Cn2c(CCC(=O)NCc3ccc(Cl)cc3)nc3cccnc32)cc1 -10.9%
CCOC(=O)COc1ccc(C2C(C(=O)OC)=C(C)NC3=C2C(=O)c2ccccc23)cc1Cl (configuration not stated) -8.76%
COc1cccc(CNC(=O)c2cnc3sc(N4CCCC4)nn3c2=O)c1OC -5.9%
CCOC(=O)CC(NC(=O)CCc1c(C)nc2c(-c3ccccc3)c(C)nn2c1C)c1ccc(OC(C)C)cc1 (configuration not stated) -41.5%
CSc1ccc(CCNC(=O)NCc2noc3ccccc23)cc1 -22.5%
CCOC(=O)c1cc(S(=O)(=O)Nc2cc(OC)ccc2OC)[nH]n1 -29.6%
Cc1ccc(C(=O)NCC(c2ccc3c(c2)OCO3)N2CCOCC2)cc1C (configuration not stated) -18.4%
COc1ccc(CNc2nc(-c3ccco3)nn2S(=O)(=O)c2ccc(Cl)cc2)cc1OC -14.4%
O=C(CSc1cn(CC(=O)N2CCCC2)c2ccccc12)Nc1ccc(Cl)cc1 -17.9%
COc1ccc(Cl)cc1NC(=O)c1cc2c(=O)n3ccccc3nc2s1 -2.12%
O=C(CC1N=C2c3ccccc3N=C(SCc3ccc(F)cc3)N2C1=O)NCc1ccc2c(c1)OCO2 (configuration not stated) -16.2%
Cc1ccc(NC(=O)CSc2nnc3ccc4ccccc4n23)cc1 -16.7%
O=C(NCCN1CCN(c2cccc(Cl)c2)CC1)Nc1ccccc1 -23.1%
CCOC(=O)C1CCN(c2ncnc3c2nc2n3CCCCC2)CC1 -4.27%
Cc1cccc(C(=O)NCC(c2ccco2)S(=O)(=O)c2cccs2)c1 (configuration not stated) 12.5%
Cc1cccc(NC(=O)c2ccc(-c3ccccc3)s2)c1 25.4%
CCc1ccc(NC(=O)c2cnn(-c3ccccc3)c2-n2cccc2)cc1 -15.1%
CCc1cnc2c(c1SCC(=O)NCc1ccccc1Cl)c(=O)n(C)c(=O)n2C -6.08%
CCC(Oc1ccccc1)C(=O)Nc1nnc(S(=O)(=O)N(CC)CC)s1 (configuration not stated) -25.2%
CCC(C)c1ccc2oc(-c3ccc(NC(=O)c4cc5ccccc5o4)cc3)nc2c1 (configuration not stated) -25.2%
CCCC(=O)Nc1nnc(S(=O)(=O)N(C)Cc2ccc(Cl)cc2)s1 -7.01%
CC(C)c1ccc(S(=O)(=O)c2nnn3c2nc(N2CCCC2)c2sccc23)cc1 -3.12%
Cc1cccc(Cn2c(=O)n3nc(-c4ccccc4)nc3c3ccccc32)c1 -30.4%
Cn1c(=O)[nH]c2cc(-c3noc(-c4ccc(Br)cc4)n3)ccc21 -10.1%
Cc1cccc(-c2nn3c(=O)cc(CN4CCN(C(=O)/C=C/c5ccccc5)CC4)nc3s2)c1 -13.2%
Cc1cnc(Nc2cccc(CN3CCOCC3)c2)nc1Nc1cccc(S(=O)(=O)NC(C)(C)C)c1 -27.6%
COc1cc2c(C(=O)Nc3cc(OC)c(OC)c(OC)c3)cn(C)c(=O)c2cc1OC -9.24%
CC(C)(C)c1ccc(/C=C/C(=O)Nc2ccc(S(N)(=O)=O)cc2)cc1 -40.6%
CCN(CC)S(=O)(=O)c1ccc2c(c1)N(CC(=O)Nc1ccccc1F)C(=O)C1CCCN21 (configuration not stated) -6.92%
CCCNC(=O)Cn1c(=O)n(CC2CCC(C(=O)NC)CC2)c(=O)c2sccc21 (configuration not stated) -9.68%
Cc1ccc(NC(=O)/C(C#N)=C/c2ccc(-c3ccc(Cl)c(C(=O)O)c3)o2)cc1C 23.5%
COc1ccc(Cn2c(C(=O)O)c(CNCCc3ccco3)c3ccc(OC)cc32)cc1 -17.2%
O=C1CS(=O)(=O)C2(C(=O)N(Cc3ccccc3Cl)c3ccccc32)N1c1ccc(F)cc1 (configuration not stated) -28.4%
CCOc1cccc(NC(=O)C2CC(=O)N(CC)C(=Nc3ccc(F)cc3)S2)c1 (configuration not stated) -25.7%
COC(=O)c1c(-c2ccc(Cl)cc2)noc1N1CCN(c2cc(C)ccc2C)CC1 -8.79%
CCOc1ccc(CCNC(=O)c2cc3cccc4c3n2CCS4)cc1 -8.39%
COc1cccc(NC(=O)C2CCCN(S(=O)(=O)c3cn(C(C)C)cn3)C2)c1 (configuration not stated) -8.56%
COc1ccc(N2CCN(c3ncnc4c3cnn4C)CC2)cc1 -25.3%
NCCNCCNCCNCCN -3.94% [at 11.5 µM, percent change from vehicle, -100% = no light]
CCCC(=O)N(c1ccc2oc(C)c(C(C)=O)c2c1)S(=O)(=O)c1ccc(CC)cc1 -54.4%
Cc1cccc(C(=O)Nc2ccc(S(=O)(=O)N3CCC(c4nc5ccccc5s4)CC3)cc2)c1 -25.9%
COCCCNC(=O)c1cc2cc(S(=O)(=O)N3CCCCC3)ccc2n1C -31.9%
CC[C@H]1OC(=O)[C@H](C)[C@@H](O[C@H]2C[C@@](C)(OC)[C@@H](O)[C@H](C)O2)[C@H](C)[C@@H](O[C@@H]2O[C@@H](C)C[C@H](N(C)C)[C@@H]2O)[C@](C)(O)C[C@@H](C)C(=O)[C@H](C)[C@@H](O)[C@]1(C)O -12%
C=Cc1ccc(Cn2c(C(=O)O)c(CNCc3ccc(F)cc3)c3ccc(C)cc32)cc1 -69.4%
Cc1cc(C)c(NC(=O)CSc2ncc3c(n2)-c2cc(Cl)ccc2N(C)S3(=O)=O)c(C)c1 -10.5%
CCC(C)(C)NC(=O)C1CCN(S(=O)(=O)c2ccc3c(c2)CCCN3C(C)=O)CC1 -19.1%
COc1cc2ccccc2cc1C(=O)Nc1cccc(-c2nc3cc(C)c(C)cc3o2)c1 -74.4%
COC(=O)c1c(NC(=O)c2ccc(S(=O)(=O)N3CCC(C)CC3)cc2)sc2c1CCN(C)C2 -35.9%
CN(C(=O)CSc1nnc(NC(=O)Nc2ccccc2)s1)c1ccccc1 -34.9%
Brc1cccc(-c2nnn3c2nc(NCc2ccc4c(c2)OCO4)c2ccccc23)c1 18.2%
O=C(NCC(c1cccnc1)N1CCc2ccccc21)c1cccc(Br)c1 (configuration not stated) -27.1%
CC(C)NC(=O)C1CCC(Cn2c(=O)c3sccc3n(Cc3ccc(F)cc3)c2=O)CC1 (configuration not stated) -15.5%
COc1ccc(-n2ncc(C(=O)NCc3ccco3)c2C2CCN(C(=O)OC(C)(C)C)CC2)cc1 -3.82%
Cc1cc(C)cc(NC(=O)N2CCC(C(N)=O)(N3CCCCC3)CC2)c1 3.5%
COc1ccc(N(C)C(=O)c2nn(-c3ccc(C)cc3)c(=O)n(C)c2=O)c(OC)c1 -6.97%
CCOC(=O)N1CCC(NC(=O)c2cnn(-c3ccc(F)cc3)c2-n2cccc2)CC1 -10.2%
CCN(CC)c1cc(C)c2cc(NC(=O)/C=C/c3ccccc3Cl)ccc2n1 -6.32%
COc1ccc(N2CC(NC(=O)C(=O)c3c[nH]c4ccccc34)CC2=O)cc1 (configuration not stated) -11.6%
COc1ccc(CNC(=O)CC(C)n2nc(C)cc2C)cc1 (configuration not stated) -4.19%
Cc1ccc(-c2nn(-c3ccc(F)cc3F)c3c2cnc2ccc(F)cc23)cc1 -0.81%
O=C(CSc1ncc2c(n1)-c1cc(Cl)ccc1N(Cc1ccccc1)S2(=O)=O)Nc1ccc(F)cc1F -25.3%
O=C(CCSCc1cccc(Cl)c1)NCc1ccccc1Cl -8.19%
CC(C)Oc1ccc(C(=O)N2CCN(c3nc4c(F)cc(F)cc4s3)CC2)cc1 -0.0419%
O=c1c(N2CCN(c3ccccc3)CC2)csc2ccc(Cl)cc12 -3.33%
CCN1c2ccccc2-n2cccc2C12CCN(C(=O)Nc1ccccc1Br)CC2 -34.7%
